Experimental data: patent publication US10183008B2, “Treatment of prolonged status epilepticus” (University of South Carolina, priority 2011, dated 2019)

Test system: GABAA inhibitory postsynaptic currents (IPSCs)
Conditions: for block of IPSC potentiation by flumazenil (BZD-site antagonist): FMZ 10 μM, CLB 10 μM, DZP 1 μM, STP 100 μM, n=4; for effect on IPSC decay: dentate gyrus granule cells, rats aged 5 to 65 days

Compound | potentiation of GABAA IPSC in the presence of the BZD agonist clobazam | block of IPSC potentiation by flumazenil (BZD-site antagonist) | effect on IPSC decay
CC(C)(C)C(O)/C=C/c1ccc2c(c1)OCO2 (stereo not drawn) [STP, 1-(3,4-methylenedioxyphenyl)-4,4-dimethylpent-1-en-3-ol] | potentiates the GABAA IPSC | but not STP | prolonged IPSC decay
CN1C(=O)CC(=O)N(c2ccccc2)c2cc(Cl)ccc21 [CLB, clobazam] |  | is blocked by flumazenil | 
CN1C(=O)CN=C(c2ccccc2)c2cc(Cl)ccc21 [DZP, diazepam] |  | is blocked by flumazenil | prolonged IPSC decay
